# Assay results taken from the supplement of paper PMC3334620.
# In all, about 33,000 sequences were measured (“E-score (-0.5 to 0.5)”: median about -0.01, highest 2% from about 0.26 on). The list shows a part of the results.
# Target: Ste12 (UniProt P13574)
# Assay: PBM E-score (8-mer binding enrichment) (E-score (-0.5 to 0.5)); higher = stronger / more preferred TF binding; most listed sequences are background and not binding sites
# Conditions: protein concentration: 200 nM; construct: GST-DNA-binding domain
# Protocol: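 Universal 'all 10-mer' protein binding microarrays (Agilent AMADID 015681) probed with GST-tagged S. cerevisiae TFs (full-length or DBD) made by in vitro transcription/translation (PURExpress), about 100-200 nM. Bound TF was detected with fluorescent anti-GST. Each ungapped 8-mer (which stands for itself and its reverse complement) is scored by the PBM enrichment score (E-score), a modified Wilcoxon-Mann-Whitney statistic from -0.5 to +0.5, computed with the Universal PBM Analysis Suite. Scale: above 0.35 generally sequence-specific binding.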
row,Sequence,PBM E-score
1,CCTAACGC,0.0951
2,CATCAGTA,-0.0586
3,AGCTGAAT,-0.0624
4,CATTAACA,0.209
5,CGACTGAG,-0.131
6,AGTGGAAT,0.00046
7,CCCCGCCG,0.242
8,GAGTTGTA,-0.0493
9,ATAACTTA,0.11
10,AAATTGTT,0.186
11,ATCTGCCA,0.00606
12,CTCGCTTA,0.134
13,CCACGCAC,-0.0462
14,ATATGGTC,-0.00502
15,CTGACCTA,-0.176
16,GGAGGGCC,-0.145
17,ACCACACA,-0.0462
18,ACAGCTGC,-0.013
19,ATGATTGA,0.147
20,ATAACCTG,-0.136
21,ACCAAGCG,-0.0473
22,CCCTAAAA,0.125
23,GTCGGCCA,-0.255
24,GGATGAAC,-0.196
25,CCGATCAA,-0.00428

row,Sequence,PBM E-score
1,CCTAGGAG,-0.202
2,ATCGGAAG,0.023
3,TAATAGTA,0.117
4,GGGCGGAA,0.119
5,ACATCCAA,0.0954
6,GTCCTCCA,0.0678
7,GTTTATTA,0.304
8,AACGGACT,-0.213
9,ACGGCACA,-0.0799
10,CGGGTACG,-0.197
11,CTTAGCCA,-0.156
12,CTCAGTGC,-0.0358
13,CAGGGAGC,-0.273
14,CATAACTA,0.105
15,GAGGAGAA,-0.202
16,GGTGCCTA,-0.201
17,CAATACAA,0.294
18,CACATTTC,0.137
19,CAGAGCTA,-0.273
20,AAAAGATT,0.127
21,CGCACAAG,0.0509
22,AGTAACAC,0.0934
23,CTCGGGAA,-0.0785
24,CTAGCGCA,-0.131
25,CCAATTAG,0.0909

row,Sequence,PBM E-score
1,ATGGGACC,-0.062
2,CCAGACTA,0.00734
3,TACATGTA,0.129
4,CCCCCCAC,-0.184
5,CAGGCAGC,-0.0436
6,AGATCATC,-0.174
7,ACGCTACT,0.0386
8,ATTTATAA,0.267
9,CTTGAGTA,-0.208
10,ACAGAAGG,-0.173
11,CTAGTAAG,-0.0551
12,ATCTAATC,0.0131
13,ACCCAACA,-0.0606
14,CTTGATTC,0.0606
15,CCGGATGC,-0.205
16,AAGGAGAA,-0.0234
17,ATACTCTG,0.0799
18,ATAGTTGA,0.205
19,AGAGCTAA,-0.177
20,ACGAAGAG,-0.0093
21,CTGGCAAC,-0.101
22,AGTCAGAA,0.127
23,TATCTAGA,-0.02
24,GGTAGCAA,-0.233
25,AGTTAGAC,-0.0969

row,Sequence,PBM E-score
1,ATAGATCA,0.0307
2,ATGCAAGC,-0.13
3,ATTGTTGA,-0.0395
4,AAGTAGTG,-0.075
5,ATAACACA,0.141
6,CATCGGCC,-0.0877
7,CATATTGC,-0.0905
8,GAAGCAGC,-0.114
9,AGGTAGCC,-0.26
10,ACAGCCTG,0.0236
11,CGGCACAC,0.124
12,CATGATGG,-0.0574
13,AGCTTTAG,-0.119
14,CCTTGGGC,-0.158
15,CTCTAGAA,-0.0761
16,GGGAGAGA,-0.216
17,TAAATTCA,-0.0128
18,CCACCAGA,0.0755
19,GTACATCA,0.133
20,ATCGAATA,0.0396
21,AGCTGCCT,-0.217
22,TCATATAA,0.207
23,TAACCTAA,0.0929
24,CTGAAGAA,-0.0851
25,CTCACCAC,-0.168

row,Sequence,PBM E-score
1,ACCGTGTA,-0.0843
2,CAATCCAC,0.0709
3,TAAGCTGA,-0.0395
4,AACCGGTA,-0.00864
5,GTATGCAA,-0.157
6,GAATTGGC,-0.115
7,ATAAACAT,0.228
8,GGCAAACA,0.0903
9,CCAGATCC,-0.149
10,CGTGCAAA,-0.24
11,ACGTCGAG,-0.101
12,GAACGTGC,-0.105
13,GAGAGTGC,-0.186
14,CCCATTAG,-0.25
15,ATATGAGA,0.222
16,ACTAATTG,0.213
17,AACAACTC,0.0625
18,CGCCCTAC,-0.11
19,GCGTGTAA,-0.116
20,CGACGTAC,0.0541
21,CGTAGACG,-0.284
22,GTCGAAGA,-0.0112
23,ACGGTCCG,-0.265
24,GGGCACAA,0.112
25,CATCTCCC,-0.0229

row,Sequence,PBM E-score
1,CGCCGCGA,0.0904
2,GTTAACTA,0.0413
3,CGTCCCAA,0.0411
4,CTCACCCC,0.0878
5,TCAGTAAA,0.131
6,CCTCATAC,0.0504
7,AGGCCATG,-0.0997
8,GCAAAAAC,0.0563
9,CTCAAGAC,-0.0036
10,ACCTATAG,-0.108
11,ACAGATGC,-0.158
12,AGTGACTA,-0.0881
13,AACAAACC,0.116
14,CGACTGCA,-0.0549
15,AACCGACT,-0.0695
16,CTGTAAGA,-0.00245
17,CCGTCTAA,-0.0731
18,GTTGAAAA,0.206
19,AAGGCGAG,-0.186
20,CAGTTCAG,-0.0105
21,AAAATTAC,0.188
22,ATGGCCAC,-0.235
23,TAAGAGGA,-0.127
24,ATGAAAAT,0.166
25,CAGATTTC,0.00467

row,Sequence,PBM E-score
1,CAAGTCAC,0.0321
2,GAGCACCC,-0.0776
3,GGGGATAC,-0.0607
4,ACAGTTTA,0.108
5,CGCAACGC,-0.01
6,GCGCACAC,0.00745
7,CAGAGAAC,-0.0695
8,TTAGGGAA,-0.0525
9,AGGCACGA,-0.196
10,ATGAAAGC,0.0566
11,TCTCTACA,-0.0356
12,GCGGTCCC,-0.154
13,AGTCTGGA,-0.0149
14,AACAAACG,0.14
15,GCTTCCTA,-0.079
16,CCTCGATA,0.00614
17,AGTCAAAG,-0.117
18,ACGCACAA,0.072
19,AATGAAGG,-0.0327
20,ACGTGCCC,-0.0826
21,GCCGCCCA,0.0226
22,GACTGCCA,0.107
